# Over roughly 33,000 sequences, “E-score (-0.5 to 0.5)” has its median near -0.043; the highest 2% begin near 0.37. The list shows a part of the results.
# Target: T1, Upc2 (UniProt Q12151)
# T1 sequence: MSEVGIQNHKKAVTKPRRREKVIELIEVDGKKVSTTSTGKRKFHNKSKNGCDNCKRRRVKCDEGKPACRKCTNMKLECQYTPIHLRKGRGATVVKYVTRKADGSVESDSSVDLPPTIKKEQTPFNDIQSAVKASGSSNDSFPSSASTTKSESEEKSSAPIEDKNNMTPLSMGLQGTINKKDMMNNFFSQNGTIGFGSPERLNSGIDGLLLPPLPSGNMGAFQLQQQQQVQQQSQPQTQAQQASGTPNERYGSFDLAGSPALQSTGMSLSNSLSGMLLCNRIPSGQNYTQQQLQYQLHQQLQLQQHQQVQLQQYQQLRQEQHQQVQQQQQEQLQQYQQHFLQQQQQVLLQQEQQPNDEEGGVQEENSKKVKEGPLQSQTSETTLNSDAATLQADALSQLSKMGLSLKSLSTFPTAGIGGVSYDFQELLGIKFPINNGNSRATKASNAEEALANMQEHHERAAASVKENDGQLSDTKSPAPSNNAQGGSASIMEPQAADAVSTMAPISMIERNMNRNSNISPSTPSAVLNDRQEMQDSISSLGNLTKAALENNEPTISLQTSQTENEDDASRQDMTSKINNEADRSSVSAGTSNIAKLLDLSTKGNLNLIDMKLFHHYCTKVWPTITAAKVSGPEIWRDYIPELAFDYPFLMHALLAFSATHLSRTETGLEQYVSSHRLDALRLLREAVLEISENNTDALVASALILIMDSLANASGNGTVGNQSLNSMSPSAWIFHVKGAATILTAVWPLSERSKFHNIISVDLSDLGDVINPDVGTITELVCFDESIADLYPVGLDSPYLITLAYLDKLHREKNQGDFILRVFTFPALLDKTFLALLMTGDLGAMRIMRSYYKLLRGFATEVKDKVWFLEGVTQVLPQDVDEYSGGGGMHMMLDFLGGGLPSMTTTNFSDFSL
# Assay: PBM E-score (8-mer binding enrichment) (E-score (-0.5 to 0.5)); higher = stronger / more preferred TF binding; most listed sequences are background and not binding sites
# Conditions: protein concentration: 200 nM; construct: GST-full length
# Summary of the method: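 The E-score, a modified Wilcoxon-Mann-Whitney statistic, was computed by the Universal PBM Analysis Suite for every ungapped eight-base word pooled with its reverse complement. Scans behind it were normalised with masliner after bound GST-tagged yeast transcription factors were detected with fluorescent anti-GST. The proteins, at about 100-200 nM, had been applied to universal all-10-mer Agilent arrays made double-stranded by primer extension.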
row,Sequence,PBM E-score
1,AAAGAGAG,-0.12
2,CCCGGAAA,-0.0335
3,ACTAGCGC,-0.167
4,ACTGGCGA,-0.204
5,ACGACATC,0.34
6,CACTACCC,-0.198
7,AATGGAAG,-0.159
8,CTGCCGAA,-0.0435
9,ACACCGAG,-0.024
10,CCTGGAAG,-0.334
11,CTCCGACA,0.0257
12,ACTCTTGG,-0.103
13,AGGCTCTA,-0.11
14,CCCATCGG,0.0976
15,TCAAGAGA,-0.0229
16,ATCGCTCC,0.111
17,AGTCATCC,-0.107
18,CATAAGGA,-0.0555
19,GCGCGTAC,0.329
20,CAGCCCGG,-0.0343
21,ATAGGGTG,-0.187
22,GTTGGATA,-0.146
23,TCATATCA,-0.0283
24,CCATCCAC,-0.193
25,AACTGATC,-0.0255

row,Sequence,PBM E-score
1,CCGCAACG,0.297
2,ATTATCAA,-0.0384
3,AGGCCGCC,-0.314
4,ACCGGCCA,-0.184
5,GAGATCCC,-0.212
6,AATGGATC,-0.145
7,GAGATAAA,0.0516
8,ACCTCAGA,-0.377
9,AGGCAGTG,-0.114
10,ACCTCTCG,0.127
11,ATGTAGCG,0.02
12,ATAGAGGA,-0.143
13,CGCGAGAG,0.162
14,ACGGAAAA,0.185
15,AACCGGAC,-0.0878
16,ATGGTCAC,-0.142
17,AGTCACAT,-0.1
18,TGTGGTAA,0.0324
19,CTCACAAC,0.0625
20,TAATCGGA,0.155
21,ATCCTCGA,-0.00724
22,CGTTAAGA,0.341
23,ACCTGCCA,-0.234
24,GGCTGCAA,-0.14
25,ATCCCAGA,-0.238

row,Sequence,PBM E-score
1,CCACAGAG,-0.0522
2,CCAAAACA,-0.143
3,TCTATGAA,0.0298
4,ACATTCCA,-0.124
5,TGCTTCAA,-0.233
6,ACAACCAG,0.00918
7,ATGTACCC,-0.126
8,CAAGTGAG,-0.214
9,AATAGAGT,-0.0523
10,CAATGTAA,0.0538
11,TAAAACGA,0.356
12,TCCCGTCA,-0.0393
13,CTCCACAG,-0.305
14,AATCGAGG,0.182
15,AATGTCTG,-0.077
16,CGCGATGA,0.0925
17,AAAACCGA,0.244
18,AGCAGGGA,-0.221
19,ATTAATCA,-0.00167
20,TCATGACA,0.0787
21,CCTGAAGA,-0.00695
22,GAACGACC,0.429
23,CTAACTAG,0.0137
24,GCGTCGAA,-0.0193
25,CCTGCGAA,-0.0541

row,Sequence,PBM E-score
1,CAGCAGAA,-0.0037
2,CCCATCCC,-0.0946
3,CGCATGAA,0.108
4,AGAAGAAC,0.0403
5,AATGTATC,0.041
6,CACACACA,-0.0178
7,AGGCACAT,-0.0795
8,CTACACGA,0.334
9,AAACATCC,-0.0738
10,ATGGCAAA,-0.126
11,AACATGAG,-0.139
12,ACGGCAGT,0.209
13,CAGCTGAC,-0.176
14,CACACTCG,0.132
15,CTATCGGC,-0.266
16,CGTTGTGC,0.0699
17,AAGGCGAC,-0.119
18,GAGATATA,0.0522
19,ATTCCTTC,-0.102
20,CACGTCGC,0.061
21,GCAGGAGC,-0.137
22,ATCCACAA,-0.118
23,CCAAACAA,0.00545
24,ACACCATG,-0.147
25,ACGAATAC,0.287

row,Sequence,PBM E-score
1,AATACGGC,0.291
2,AGTTGTGA,-0.00341
3,GGAAACAA,-0.0508
4,TAGATTAA,0.104
5,CCCCTGTA,-0.103
6,AACAATCC,-0.0485
7,CAATCAAA,-0.00922
8,ACACTAAT,-0.0751
9,CGGCTGTC,0.0196
10,CCCGGCTC,-0.145
11,CGAGCGTC,0.189
12,CCTTCGAA,-0.0831
13,AGACTCTA,-0.0049
14,CCGCCCGC,0.0673
15,ATTATTGC,0.0867
16,CCTTGTAA,0.0908
17,AAGCCTCG,0.141
18,GATCAGAC,-0.158
19,CACTTAAC,0.126
20,ACCTCCGT,0.0209
21,GTACGTTA,0.343
22,ACAATCAG,0.00625
23,GGGTCTTA,-0.104
24,CACGGCAC,-0.155
25,CTTGTGGC,-0.275

row,Sequence,PBM E-score
1,ATTATAAT,0.147
2,GGGGCCCC,-0.134
3,CTTCCGAC,-0.0251
4,GTTTCGTA,0.446
5,ACCAACTC,-0.0426
6,ACGCCAGT,-0.0196
7,CTTATACC,0.172
8,AGTCTAAA,-0.00311
9,CCAGAAAC,0.0333
10,AAGCGGCA,0.0509
11,GAAGCAAA,-0.0986
12,AAGTTGCA,-0.0796
13,CCGCGCGA,0.0382
14,GTTATATA,0.104
15,TGTACGAA,0.479
16,CTCGAGAC,0.0431
17,ATCAACTC,0.0114
18,CGGGGCGA,0.0688
19,AGTACGAT,0.345
20,CAGTAGGC,-0.0788
21,AACCCAAG,-0.0808
22,GGTGTACA,-0.0299
23,CTAAAGTA,-0.0451
24,AACGCCTC,-0.141
25,CCAGTAAC,-0.0934

row,Sequence,PBM E-score
1,ATTGCCGA,0.0654
2,AGCCTGCA,-0.194
3,CTATATAG,0.114
4,CCAATTTA,0.0967
5,AGAATGGA,-0.0363
6,CTTCCCCA,-0.212
7,AACGACCT,0.386
8,CTGTGTGA,-0.201
9,CATTGCGG,-0.0808
10,TTCATGAA,-0.0797
11,GCGTGTGA,-0.14
12,CGCTTATC,0.161
13,ACCCGTAG,-0.11
14,ACAACCTC,-0.0133
15,CAGGGGCG,-0.25
16,ATCGCAAG,-0.255
17,AAAGCAGG,-0.168
18,GCATCCCA,-0.159
19,GGTTGGTA,0.162
20,CATGGGGG,-0.334
21,TGCCGGCA,-0.104
22,CAGCGCGA,-0.106
23,CGCTACCG,0.1
24,GGTCTCTA,-0.139
25,AGCATAGC,-0.118

row,Sequence,PBM E-score
1,GGAGTAAC,-0.169
2,AGCGATCA,0.11
3,AAACGGGA,0.369
4,AAAAATCG,0.0206
5,AAGCTCCT,-0.197
6,AAGTTCCG,0.0425
7,GTGCAGGA,-0.214
8,TACTGAGA,-0.214
9,ACTTCTTA,0.0217
10,GCCCCGAA,-0.148
11,CTATGATA,-0.0237
12,CAGCTCTA,-0.212
13,TGACCCCA,-0.148
14,GGCTAGCC,-0.266
15,ACGGGCTG,0.0956
16,AGTTAACG,0.331
17,TCGGTAGA,-0.0774
18,CAGTCTAA,0.0641
19,AGATGATG,-0.02
20,ACCCCAGT,-0.132
21,CTTCCATA,-0.192
22,CAGGAAGG,-0.338
23,CAGGTAGA,-0.0845
24,GGCCGTTA,0.145
25,GGGGGGCA,-0.084

row,Sequence,PBM E-score
1,ACCGGCAC,-0.0782
2,ACAGTGAG,-0.199
3,CTTAGACC,-0.154
4,AATTACCT,0.129
5,CTTAGCTC,-0.13
6,GGGCATTA,-0.0598
7,CCTTCCAC,-0.0571
8,GCTCACTA,-0.0903
9,AAAATCTT,-0.0882
10,AGAGGGAG,-0.126
11,AGGGGCTC,-0.17
12,TACCCTCA,-0.177
13,GCCCAGTA,-0.116
14,AAGGTACC,-0.0716
15,GTTACAAA,0.0116
16,CCAGCGCA,-0.221
17,ACTTGTAC,0.259
18,CCTCTTCC,-0.228
19,GACGAACC,0.0416

# Reference: the supplement of paper PMC3334620
